Results published in the BET-seq Pho4 binding data (Le et al. 2018).
Some of the results follow. The energies were worked out here from pooled read counts, against the library average; single values are noisy.

Target: T1, Pho4 (S. cerevisiae) (UniProt P07270)
T1 sequence: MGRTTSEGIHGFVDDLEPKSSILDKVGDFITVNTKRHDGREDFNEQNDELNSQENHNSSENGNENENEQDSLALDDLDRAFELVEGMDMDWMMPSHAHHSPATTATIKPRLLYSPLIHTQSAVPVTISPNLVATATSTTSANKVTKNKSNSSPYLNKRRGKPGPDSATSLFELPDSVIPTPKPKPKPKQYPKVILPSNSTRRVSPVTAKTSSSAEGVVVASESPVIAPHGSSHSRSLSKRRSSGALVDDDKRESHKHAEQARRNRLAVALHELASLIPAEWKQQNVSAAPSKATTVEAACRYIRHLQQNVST
Assay: relative binding free energy (BET-seq); higher = weaker binding
Conditions: reference: library average

Sequence	relative binding free energy [kcal/mol]
CTGGCCACGTGTGGTG	-0.09
AGTCTCACGTGGTGTG	0.17
GGAGGCACGTGTGTGA	-0.09
GGATTCACGTGGCTGA	0.3
CGTAGCACGTGGTGAG	-0.19
GTGCGCACGTGGGAAT	-0.08
CGTTTCACGTGAGGGC	0.23
TTGTGCACGTGTAGCG	0.04
AGTCTCACGTGAGGGG	0.29
ATTCTCACGTGCGGTG	0.13
ATGTTCACGTGCTGAG	0.25
CGTAGCACGTGGGCGT	-0.18
ATCCACACGTGGGTGT	-0.06
CTGTGCACGTGCGTTA	-0.08
ATTTACACGTGTGTCA	0.08
AATTTCACGTGCGTTT	0.17
GTGTACACGTGGTGTT	0.02
AACGACACGTGGAGGT	0.05
TCATTCACGTGTGGTA	0.18
ATTTGCACGTGACTGA	0.25
GTAGACACGTGAAGTT	0.35
GAAAACACGTGTGGGT	0.24
TGTTTCACGTGATACG	0.16
GGCGCCACGTGTTGTG	-0.06
TGGCTCACGTGACGTG	0.44

Sequence	relative binding free energy [kcal/mol]
TTTCTCACGTGTGGGT	0.23
TTGTCCACGTGTTTGA	-0.01
TCAATCACGTGTTTTA	0.1
GTGAGCACGTGATTGG	0.23
GGGAGCACGTGGGGAC	-0.11
GCAGACACGTGGGGTG	-0.22
TGCATCACGTGTGGGC	0.19
ATGGTCACGTGTGCAG	0.13
GGGATCACGTGACTGT	0.22
TTTTACACGTGCATTG	0.05
TGGAACACGTGGGAGG	-0.06
GAGTTCACGTGGGCGT	0.31
TGTGTCACGTGATGAG	0.18
GTGGTCACGTGATAGA	0.28
GGTTCCACGTGTGTTA	0.22
GGTTGCACGTGGATTC	0.07
AAGACCACGTGTAGGG	0.06
GTGCGCACGTGGGGGC	-0.26
CAGGTCACGTGTTGAG	0.07
AGTTTCACGTGTCCGG	0.22
ATTAGCACGTGGTATA	-0.17
TGTCTCACGTGGGTTC	0.13
CTTGCCACGTGTTTTT	-0.04
TTTGACACGTGTAGTG	0.03
TAGTGCACGTGTTTTT	0.07

Sequence	relative binding free energy [kcal/mol]
AATTGCACGTGGTGAA	0.07
TTGTTCACGTGGGTTC	0.24
GGCGTCACGTGATAGG	0.27
TAGATCACGTGTCGTA	0.2
GTATACACGTGTGCGT	-0.08
GTATTCACGTGTCGGG	0.25
TTTGACACGTGGGGTC	0
ATGATCACGTGGATGA	0.17
CTAGGCACGTGGGTGG	-0.26
ATGGACACGTGTGGAG	0.07
GAGGGCACGTGTGATC	0.06
TTGGGCACGTGTGCAT	-0.06
ATGTTCACGTGCTGGA	0.14
CGTTCCACGTGAAGGT	0.36
ATTTTCACGTGGCAGT	0.26
TTATTCACGTGAGGCT	0.19
GAGTTCACGTGAAGTG	0.33
ATTGGCACGTGGAGAA	-0.08
AGTAGCACGTGTTAAT	0.02
GATGGCACGTGCAATG	0.02
TTGGGCACGTGCTGTA	-0.25
GTGTACACGTGTGTTG	0
GATAACACGTGGCGGT	0.03
